The list shows a part of the results. Cleavage of a single-stranded DNA pool by Rep nickase domains was read by sequencing at 3 µM enzyme and 37 °C for 1 h; the strands have 90 letters, of which the middle is given. A value is the log2 ratio of uncut reads to the pool without enzyme; the lower, the more was cut; hits are not called. Counts are relative to all reads; uncut strands gain when others are lost, and binding without cutting may add a little.
Each sequence was assayed on T1, Rep nickase domain of tomato golden mosaic virus (assay: uncleaved DNA left, log2 of reads against the no-enzyme library (log2 ratio); higher = less cleavage (more negative = more Rep cleavage of the k-mer); sequences stand for … in CTCGTCCG…ACCGGAGA).
T1 sequence (residues 1-124 of Rep, tag left off): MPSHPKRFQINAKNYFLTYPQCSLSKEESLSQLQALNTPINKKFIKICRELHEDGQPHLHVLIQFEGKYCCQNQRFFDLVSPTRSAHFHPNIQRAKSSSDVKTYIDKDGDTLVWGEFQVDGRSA
Procedure: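 A pool of 90-nt single-stranded DNAs with seven random bases just before the constant AC of the nick site (name = the seven bases) was cut by 3 µM recombinant His6-SUMO-tagged Rep nickase domain (300 nM DNA, 50 mM HEPES pH 8.0, 50 mM NaCl, 1 mM MnCl2, 1 h, 37 °C, three replicates). Uncut DNA was amplified and sequenced.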

Sequence	uncleaved DNA left (log2)
CGACGGC	-0.033
TTCCCAC	-0.0769
TTTGAGC	-0.186
GGAAACC	0.0637
CAGCAAC	0.0283
ATGATTT	-0.187
CAAGCCC	0.0382
GGCTGAT	-0.0325
TTAGCTT	0.0321
CATAACT	-0.117
TAAGATC	-0.276
TAGCATG	-0.0245
GGCATAT	-0.0788
TCTCAGA	0.0921
GTGGGTT	-0.0999
GGTGATA	0.0379
GATCGCA	0.031
TTCTCCC	-0.241
CTCACAT	0.00534
CGTGGTG	0.0236

Sequence	uncleaved DNA left (log2)
GCTATGT	-0.0587
TAGTTCA	0.0245
TCTGTCT	-0.00909
CGCCTCC	-0.104
CGTTTGT	-0.0286
ATGAACA	0.101
ACAACTG	0.0337
CTTAAAG	-0.0683
CCACCCT	-0.117
AGATAAA	0.074
CTGCGAC	-0.147
GGGTGGG	0.0788
GTTCAGC	0.0557
CCCCTCA	-0.172
ATCTGAC	0.0842
TGACCAC	0.0514
CGGATCT	-0.159
TCTTGGA	-0.0449
TGTCGTT	-0.2
CCGGAAG	0.0349
